Drawing on the RNAGym collection of RNA variant scans (doi:10.7554/elife.90254), this text covers self-cleavage for 167 variants.

B1: LINE1-mini (parent)
chain: GGCAGAGCUCAACACAGCGUGGCAAAGUGGCUGUGGCUAGACUGCC

Read counts are not given, so values of variants with three or more changes are uncertain.

Variants of B1 are the subject of this series. Put plainly: self-cleavage, relative activity (ratio to wild type); higher = more cleavage; in vitro, sequencing; the parent is a self-cleaving ribozyme.
With G5U G7C A11U G21A U32C, the self-cleavage stood at 0.01.

As to A4C G27C G33U C46A, the self-cleavage amounted to 0.02.

In the case of U9G G17C G40C, the self-cleavage came to 0.15.

As to C3U C10U G17C C37G, the self-cleavage turned out to be 0.07.

G7C C10A C45G: the self-cleavage was 0.

Regarding G1A G5A A12G C18U, the self-cleavage is 0.17.

As for A4U U20C G33U, the self-cleavage was 0.03.

Regarding G7A C10A U20C U28G G29U, the self-cleavage turned out to be 0.01.

As to A11C G19U C37G C45A, the self-cleavage was 0.01.

As to A4C A24G U43G, the self-cleavage came to 0.22.

Regarding A11G U20G C23A U32A, the self-cleavage worked out at 0.

With A16U C31G C42G, the self-cleavage stood at 0.05.

Turning to C10G U20C G27A U28G G33U, the self-cleavage came out at 0.

Consider A14C A16U G22C A26C C46G, for which the self-cleavage came out at 0.01.

As to G17U A24C G40U, the self-cleavage is 0.08.

Turning to C31A G33U G36U, the self-cleavage was found to be 0.02.

For C15A C23G A26U G40U, the self-cleavage stood at 0.18.

For the variant A6G C15U U28A U34A G35C C45A, the self-cleavage worked out at 0.01.

In the case of G5A A25U C45U, the self-cleavage was 0.28.

On to G19A A39C C45G, for which the self-cleavage is 0.06.

On to G7A G17U G40U, for which the self-cleavage was 0.19.

As to C3U A4U A6G U9C U20G G29C G33A C42U, the self-cleavage was 0.01.

For G7C G21U C31A, the self-cleavage stood at 0.08.

Regarding G2A C3U G27A C31U C37G, the self-cleavage was found to be 0.93.

In the case of G1U C23U C37U, the self-cleavage turned out to be 0.02.

For the variant G17A C18A U32A, the self-cleavage is 0.04.

Regarding G1A C8U A12G G17A C45A, the self-cleavage worked out at 0.6.

On to G5C U9G A12U U20A, for which the self-cleavage is 0.01.

As for C3G G7A G44U, the self-cleavage worked out at 0.07.

Turning to C8A C13U A14C U20C, the self-cleavage was 0.19.

Regarding A14G G30C G35U, the self-cleavage is 0.02.

Regarding C10G A11G G36A, the self-cleavage was 0.01.

Take A11G C15U A16G: the self-cleavage was 0.01.

With A16U G21A A24C U28C G36C, the self-cleavage turned out to be 0.05.

As for C15A U20C U32A, the self-cleavage amounted to 0.01.

Turning to G5A G33U C42G C45U, the self-cleavage is 0.

As for A16U G21C C31U U34G G35C G40U U43C, the self-cleavage stood at 0.01.

On to C13U G27C U28C U38G A41C, for which the self-cleavage was 0.01.

Turning to A4C C15A G17C G35A G40U, the self-cleavage worked out at 0.08.

With G22C C37A C46U, the self-cleavage is 0.02.

As to A6U C10A G19A C37A, the self-cleavage was found to be 0.02.

Regarding C8U U9G A12U C15A C23U A25G, the self-cleavage came to 0.05.

On to A14C G35C G44U, for which the self-cleavage stood at 0.02.

For the variant G27C U28C C42U, the self-cleavage is 0.18.

In the case of U34A C37A U43G, the self-cleavage was determined as 0.

On to G7C C23A C42G, for which the self-cleavage was 0.02.

Turning to G7C G27U C42A, the self-cleavage worked out at 0.02.

For G2A A6U G7A, the self-cleavage is 0.3.

As to A6U G27C U34C G35A G36A, the self-cleavage was found to be 0.52.

For the variant A4G C13A A24U, the self-cleavage was found to be 0.32.

As to A6C G19C G33C G40U U43C, the self-cleavage is 0.04.

Consider A12U C18G C31U C37U, for which the self-cleavage was 0.04.

With G2C A6G U34G, the self-cleavage was 0.01.

For the variant C18A G21U A41G, the self-cleavage was found to be 0.25.

Consider A16C G22U A24C C42U C46A, for which the self-cleavage was 0.01.

On to A6U C31A C37A, for which the self-cleavage came out at 0.06.

On to G17C A24G G40A, for which the self-cleavage is 0.04.

Regarding G1U G30U C46A, the self-cleavage turned out to be 0.83.

Regarding A4U A24U G27A C31U C37G U38G, the self-cleavage was determined as 0.02.

For the variant U32C G35A C42A, the self-cleavage was 0.03.

With A12G G30A U32G C42A, the self-cleavage is 0.08.

As for G2U C18G G36A G44C, the self-cleavage was determined as 0.01.

A16C U20C A41C: the self-cleavage came to 0.05.

For A16U U20A C31A A39C U43A, the self-cleavage is 0.02.

For the variant A4C G7A U34A A39G, the self-cleavage came to 0.02.

Regarding G7U A11C G17U C23A G40C A41U, the self-cleavage amounted to 0.01.

As for A12G U32A U43A, the self-cleavage was found to be 0.03.

As to U20A C37A G40A, the self-cleavage was 0.16.

Turning to C18A G30A G35U A41G, the self-cleavage amounted to 0.02.

Consider U9C A24C G36C A39U, for which the self-cleavage came to 0.01.

On to A11U A12U C15G G30U C42A, for which the self-cleavage was 0.

Consider C3U A24G U28G G29A G44C, for which the self-cleavage worked out at 0.15.

Consider A24C C31U C46G, for which the self-cleavage turned out to be 0.04.

G2U C3A A39G: the self-cleavage amounted to 0.29.

As to G2A A4G A6G U32A G36C, the self-cleavage is 0.09.

In the case of G1C A4U A24C U32A A39C, the self-cleavage is 0.02.

For C3G G33A A39C, the self-cleavage was determined as 0.03.

Consider G17U G29C G36C C42U C46A, for which the self-cleavage stood at 0.02.

C3U U9A G22U G29C G33A G35U U38A U43C: the self-cleavage was 0.

C18A G27C C37A U43A: the self-cleavage amounted to 0.

Regarding C13A G30U U32C, the self-cleavage came out at 0.05.

On to G1U C13G G29U, for which the self-cleavage came to 0.16.

In the case of G19C A26C U38A, the self-cleavage was 0.03.

For the variant A14C G19A A39U, the self-cleavage came out at 1.29.

As for C10U C15U C18A G33C U38A, the self-cleavage turned out to be 0.01.

On to G2U G5A G29U G36A U43C C46A, for which the self-cleavage was 0.16.

As for C10A A25C G35A C42A, the self-cleavage turned out to be 0.03.

For A4C C13A A14U C15U U32A C42A, the self-cleavage is 0.9.

With C15G G27A U28A G35C, the self-cleavage is 0.06.

C13A U20A G21C G29C U43A: the self-cleavage was 0.05.

Take G21C C23U A24U C42U: the self-cleavage stood at 0.12.

Consider C15G G17U C18G G19U G40U, for which the self-cleavage amounted to 0.01.

Take G5A A25U C42G G44U: the self-cleavage stood at 0.02.

Regarding C10A C31G A39G, the self-cleavage worked out at 0.03.

For the variant C3G A6U A12U A14G C15A C18G C31A U32G, the self-cleavage was found to be 0.02.

Turning to A6C C13A C15G A24C, the self-cleavage turned out to be 0.02.

Regarding G2U C8U C18U G29U C31G G35C, the self-cleavage is 0.01.

In the case of A4U U28C U32A, the self-cleavage is 0.07.

Take U20G C31U C46A: the self-cleavage was found to be 0.3.

On to G5A C10A G22A U34A A39U, for which the self-cleavage stood at 0.02.

Regarding C3U A6C G7U, the self-cleavage worked out at 0.11.

With A6C C15G G27A U32G C45G, the self-cleavage worked out at 0.02.

G7A G29C G33C U38C C45A: the self-cleavage worked out at 0.1.

Turning to G5A U20A G22U G29A A39U, the self-cleavage stood at 0.03.

On to C10U C18A G19U G22C U28C G44U, for which the self-cleavage is 0.03.

Consider U9A A14U G21A G33A C42G, for which the self-cleavage is 0.02.

For C23U C31G G35C, the self-cleavage turned out to be 0.06.

Turning to A11G G19C A24G, the self-cleavage was 0.

In the case of A14U U20G U34A, the self-cleavage amounted to 0.1.

As to A6U C8U G17U U32A, the self-cleavage is 0.06.

Regarding C8A G17A G21A G30A, the self-cleavage amounted to 2.05.

Turning to A11U C18G A26G, the self-cleavage was determined as 0.09.

On to A11G A16U G35C A39G, for which the self-cleavage was determined as 0.

G1A G22A C31A: the self-cleavage is 1.04.

Turning to G5C G19C G33U G35C, the self-cleavage was 0.51.

In the case of G1U C3U C10U C13G C42A, the self-cleavage is 0.19.

Consider C8G C13A G17A C23A, for which the self-cleavage was determined as 0.

A4U C23A A26G G36A G44U: the self-cleavage turned out to be 0.03.

Regarding U9A A16G G40A, the self-cleavage was 0.03.

For the variant C8G G17A G21U G22A, the self-cleavage was determined as 0.01.

For U20G G30C U43C, the self-cleavage was 0.02.

With C8A C18U U28A, the self-cleavage was 0.4.

Take C3A G21U G35U: the self-cleavage was found to be 0.23.

Regarding C15U U32G C46G, the self-cleavage is 0.03.

As to U9A G27A C31A C37U, the self-cleavage worked out at 0.23.

Regarding A11U C23G G30U C42U, the self-cleavage turned out to be 0.01.

For C3U C8U C45U, the self-cleavage worked out at 0.34.

Consider G5U A6G G35A C45U, for which the self-cleavage is 0.07.

On to C13U A24G U32A G35A C46G, for which the self-cleavage is 0.59.

For G1A A16G G22U C23U G35U, the self-cleavage is 0.01.

As to C8U G21U C42G, the self-cleavage was determined as 0.07.

In the case of A16C A39C C45A, the self-cleavage was determined as 0.01.

With G5A A12G C13G A24U U28A, the self-cleavage is 0.29.

Take C3U C8A A16U G27A: the self-cleavage was determined as 0.49.

Take U9C A24C A25G A26G: the self-cleavage turned out to be 0.01.

In the case of G2A G19A U34G C37U, the self-cleavage was 0.43.

As for A16C C18A G21U, the self-cleavage was found to be 0.08.

For G17A A25U G36A A39C, the self-cleavage is 0.06.

Consider A4G A11U U38A, for which the self-cleavage was 0.04.

As to G2A C3A C31G C37U, the self-cleavage came to 0.68.

With C3G C15G C37A, the self-cleavage came out at 0.06.

For the variant C18A G35A G36A, the self-cleavage worked out at 0.12.

In the case of A4C C8G C15G, the self-cleavage was 0.08.

On to G2C G5U C15U C31U, for which the self-cleavage was found to be 0.04.

Consider C15A A41U U43G, for which the self-cleavage was 0.03.

For C3A A26C U28C G30A, the self-cleavage is 0.23.

With A14G G17U G30C G35U, the self-cleavage stood at 0.23.

For G21A A24G C31U G36A, the self-cleavage was 0.04.

For the variant C3G G7A G29U, the self-cleavage is 0.6.

On to C15A A24G A39U C46U, for which the self-cleavage amounted to 0.01.

As to G1C G7U G33A G44U, the self-cleavage turned out to be 0.05.

Consider A14G A26C U28A G40C G44U, for which the self-cleavage was 0.03.

In the case of A11U C15A U34C G35A, the self-cleavage was found to be 0.01.

Take A6C U32A G33A G35U: the self-cleavage is 0.03.

As to G2U A39U U43G, the self-cleavage came out at 0.02.

Consider G2U A6U A12G C18U A39C, for which the self-cleavage amounted to 0.07.

Regarding G1U G27A U32A, the self-cleavage came out at 0.05.

As for A4C C10U C23G G35U, the self-cleavage is 0.01.

On to C13G C15A G21A A24C A39C, for which the self-cleavage was determined as 0.09.

With G7U G19A G29U, the self-cleavage stood at 0.04.

Regarding C13A C15A G22A G36C, the self-cleavage is 0.02.

Take C8U U9A G36A G40C: the self-cleavage turned out to be 0.05.

With A11G C13A U38G, the self-cleavage worked out at 0.01.

For the variant A4G G33A A39C U43A, the self-cleavage amounted to 0.02.

In the case of A6C C8G G33C C37U, the self-cleavage worked out at 0.01.

Turning to C8U C31U G40A, the self-cleavage came out at 0.04.

Take G1U G7C G40U: the self-cleavage was determined as 0.07.
